{"source": "paper PMC12190436", "about": "“5-Ene-2-arylaminothiazol-4(5H)-ones Induce Apoptosis in Breast Cancer Cells” (Cells, 2025)", "test_system": "NCI-H322M", "procedure": "The primary anticancer assay was performed on a panel of sixty human cancer cell lines derived from nine diseases, in accordance with the protocol of the Drug Evaluation Branch, National Cancer Institute, Bethesda. Novel compounds were added to the cells at a single concentration (10^−2 µM) and incubated for 48 h. The cytotoxic and/or growth inhibitory effects of every compound were evaluated using the sulforhodamine B (SRB) assay. The obtained data were reported as the percentage of growth of the treated cells compared to the untreated control. […] The SRB assay was used to estimate cell viability or growth. Using absorbance measurements [time zero (Tz), control growth in the absence of drug (C), and test growth in the presence of drug (Ti)], the percentage growth was calculated for each drug concentration. Percentage growth inhibition was calculated as follows:\n[(Ti − Tz)/(C − Tz)] × 100 for concentrations for which Ti ≥ Tz,\n[(Ti − Tz)/Tz] × 100 for concentrations for which Ti < Tz.\nDose–response parameters (GI50, TGI) were calculated for each compound. Molar concentration of the compound that inhibits 50% net cell growth (GI50) was calculated from [(Ti − Tz)/(C − Tz)] × 100 = 50, which is the drug concentration resulting in a 50% lower net protein increase in the treated cells (measured by SRB staining) as compared to the net protein increase seen in the control cells. The drug concentration resulting in total growth inhibition (TGI) was calculated from Ti = Tz. Values were calculated for each of these parameters if the level of activity was reached; however, if the effect was not reached or was excessive, the value for that parameter was expressed as more or less than the maximum or minimum concentration tested. Compounds having GI50 values ≤ 100 μM were declared to be active."}
{"smiles": "COc1cc(NC2=NC(=O)C(=Cc3c[nH]c4ccccc34)S2)cc(OC)c1OC", "note": "[Les-6418, 5-((1H-Indol-3-yl)methylene)-2-((3,4,5-trimethoxyphenyl)amino)thiazol-4(5H)-one]", "values": [{"measurement": "TGI", "setting": "48 h", "value": 21.2, "unit": "µM"}, {"measurement": "GI50", "setting": "Homo sapiens, 48 h", "value": 6.38, "unit": "µM"}, {"measurement": "CC50", "setting": "Homo sapiens, 48 h, read-out: LC50 (the source's name)", "value": 54.2, "unit": "µM"}, {"measurement": "SI (TGI)", "setting": "MG_MID_60/value", "value": 0.88}]}
